Test system: human T-lymphotropic virus type III B (HTLV-IIIB)
Test: Inhibition of HIV-induced cell damage in infected MT-4 cells (trypan blue dye exclusion)
Conditions: HIV-infected MT-4 cells; concentration higher than 25 μg/ml; FIG. 11

In the case of C/C1=C\C=C\C2(C)C=C(CO[C@H]3O[C@H](CO)[C@H](O)[C@H](O)[C@H]3O)C(C)CC23OC(O)C(C3=O)C(O)/C=C/C2(C)C=C(C=O)C(C)CC23OC(O)C(C3=O)C(O)/C(C)=C/C=C/C2C=C(CO[C@H]3O[C@H](CO)[C@H](O)[C@H](O)[C@H]3O)C(C)CC23OC(O)C(C3=O)C(O)/C=C/C2(C)C=C(C=O)C(C)CC23OC(O)C(C3=O)C1O (stereo partly shown), the “Cell damage induced by HIV” value was “significantly inhibited”.
